Experimental findings from PubChem BioAssay (NCI) are described below.

The term GI50 denotes the concentration at which growth is held to half of that of the control. A word on the TGI: it is the concentration at which net growth stops. Lower therefore signals more potent growth arrest.

“And” between values parts separate entries of the source, which are not always exact repeats. Equal values may be shown once.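 Following 48 hours of exposure in 96-well plates, responses at five concentrations were used to interpolate endpoints linearly. The concentration for 50% growth inhibition is given as GI50. TGI marks complete inhibition of growth.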 Some results are limits rather than exact numbers.

In the assay the test system is NCI-H322M lung. The experiment in a line: DTP human tumour cell line panel, 48 h.
In the case of `COc1cc(OC)cc(-c2ccc(-c3ccc(C(=N)N)s3)s2)c1`, the GI50 was 1.6 µM and the total growth inhibition concentration (TGI) was determined as 3.42 µM.

For `COC1/C=C\OC2(C)Oc3c(C)c(O)c4c(O)c(c(/C=N\OCCCc5ccccc5)c(O)c4c3C2=O)NC(=O)/C(C)=C\C=C/C(C)C(O)C(C)C(O)C(C)C(OC(C)=O)C1C` (stereo not given), the concentration for total growth inhibition (TGI) was 21.9 µM.

For `COc1nc2c(cc1S(=O)(=O)c1ccccc1)CCc1c-2cnn1Cc1ccccc1`, the GI50 was 11.8 µM and the concentration for total growth inhibition (TGI) is greater than 100 µM.

On to `COc1cccc2c1C(=O)c1c(O)c3c(c(O)c1C2=O)C[C@@](O)(C(=O)CO)C[C@@H]3OC1CC(OC(C)=O)C(OC(C)=O)C(C)O1` (stereo not given in full), for which the GI50 is 1.9 µM and the TGI amounted to 28.5 µM.

Regarding `Cc1c2cnccc2c(C)c2c1c1cc(C(=O)O)ccc1n2C`, the GI50 is 0.804 µM and the TGI is 7.64 µM.

With `CC(C)C(C/C=C1/CC(CO)(COC(=O)C(C)(C)C)OC1=O)C(C)C` (stereo not given), the TGI is 25.9 µM.

Molecule `O=C1c2ccccc2C(=O)c2c(NC(=O)C(Cl)CCl)cccc21` (stereo not given) gave a TGI of 41.1 µM.

`CCc1cccc(CC)c1Nc1nc2c(s1)C(=O)c1ccccc1C2=O`: the concentration for total growth inhibition (TGI) was found to be 32.5 µM.

Regarding `CN(C)Cc1cc(C(=O)/C=C/c2ccc(Br)cc2)cc(CN(C)C)c1O`, the TGI was 23.8 µM.

In turn, `COC(=O)/C=C\[C@@H]1[C@H](C)N1S(=O)(=O)c1ccc(C)cc1` (stereo not given in full) displayed a concentration for total growth inhibition (TGI) greater than 100 µM.

With `CCc1nc(-n2c(CC)nc3ccccc3c2=O)nc(N)c1-c1ccc(Cl)cc1`, the GI50 is greater than 44.9 µM and the TGI was greater than 100 µM.

Regarding `O=S(=O)(CC#CCCCOCC#Cc1ccccc1C#CCS(=O)(=O)c1ccccc1)c1ccccc1`, the GI50 was greater than 100 µM and the TGI is greater than 100 µM.

Take `COc1ccc2[nH]c(-c3ccccc3)c(C=C(C#N)C#N)c2c1`: the GI50 was 7.39 µM and the total growth inhibition concentration (TGI) was greater than 100 µM.

Regarding `O=C(c1ccco1)c1ccccc1C(=O)c1ccco1`, the TGI was greater than 100 µM.

As to `O=C(C[C@@]1(O)C(=O)Nc2c(Cl)ccc(Cl)c21)c1ccc(C2CC2)cc1`, the GI50 was 0.663 µM and the TGI is 20.8 µM.

For the molecule `CCCCC1C(=O)N(c2ccc(S(=O)(=O)Nc3ccccn3)cc2)N(c2ccc(O)c(C(=O)O)c2)C1=O` (stereo not given), the concentration for total growth inhibition (TGI) is greater than 100 µM.

As for `OC(COc1cccc2ccccc12)CN1CCN(c2ccc(Cl)cc2)CC1` (stereo not given), the GI50 is 27.5 µM and the TGI is greater than 100 µM.

As to `C=CC(=O)NCCOc1cccc(Nc2cc(NCCCNC(=O)C3CCC3)c(Br)cn2)c1`, the GI50 was 1.7 µM and the TGI stood at 12.3 µM.

With `c1ccc(-n2cnnc2-c2nsc3ccccc23)cc1`, the total growth inhibition concentration (TGI) was greater than 100 µM.

Consider `COc1cccc(CCn2c(N)c(C(=O)O)c3ccc([N+](=O)[O-])cc3c2=O)c1`, for which the TGI is greater than 100 µM.

In turn, `CC(=O)c1cccc(Nc2c3ccccc3nc3occc23)c1` displayed a concentration for total growth inhibition (TGI) greater than 100 µM.

For `COc1cc(/C=C2\CCCC3C2=Nc2ccccc2NC3c2cc(OC)c(OC)c(OC)c2)cc(OC)c1OC` (stereo not given), the GI50 is 5.58 µM and the total growth inhibition concentration (TGI) is greater than 100 µM.

The molecule `Fc1ccc2c(c1)SC1Oc3ccccc3-c3c1c-2nn3-c1ccccc1` (stereo not given) yielded a TGI greater than 100 µM.

For the molecule `CCCCCCCCCCCCC/C=C1\C[C@H](O)COC1=O`, the TGI turned out to be 30.4 µM.

With `CCC(C(=O)c1cccs1)C(O)(C(F)(F)F)C(F)(F)F` (stereo not given), the concentration for total growth inhibition (TGI) is greater than 100 µM.

On to `COc1ccc(-c2nn(-c3ccc(NC(=O)Nc4ccc(Cl)c(Cl)c4)cc3)cc2-c2ccncc2)cc1Cl`, for which the GI50 was 3.54 µM and the TGI is greater than 100 µM.

In turn, `CC1=CSC(O)(c2ccc(Cl)cc2)c2noc(=O)n21` (stereo not given) yielded a TGI greater than 100 µM.

`C=C1CC23CCC4C(C)(C(=O)O)CCCC4(C)C2CCC1C3` (stereo not given) returned a concentration for total growth inhibition (TGI) greater than 100 µM.

As for `COc1ccc2c(c1)C(=O)c1c-2c(OCCN(C)C)nc2cc(OC)ccc12`, the GI50 was 1.36 µM and the concentration for total growth inhibition (TGI) worked out at 4.42 µM.

Take `C=CCOc1ccc(C2(c3ccc(OCC=C)cc3)C(=O)Nc3ccccc32)cc1`: the concentration for total growth inhibition (TGI) is greater than 10 µM.

`O=C(O)c1c([N+](=O)[O-])cc(C(F)(F)F)cc1[N+](=O)[O-]` returned a TGI greater than 100 µM.

Molecule `Cc1cccc(Cl)c1NC(N)=S` registered a TGI greater than 100 µM.

The molecule `N#Cc1nc(Sc2cnsn2)c(Sc2cnsn2)nc1C#N` registered a concentration for total growth inhibition (TGI) greater than 100 µM.

`COc1cc(CNc2nc3ccccc3n2Cc2ccccc2)cc(CN2CCOCC2)c1O`: the total growth inhibition concentration (TGI) is 45 µM.

As for `COc1ccc(C2=CC(c3ccc(Oc4ccnc5cc(Cl)ccc45)c(OC)c3)c3c(nc(OC)[nH]c3=O)N2)cc1` (stereo not given), the GI50 was greater than 100 µM and the TGI was greater than 100 µM.

In turn, `NC(=S)N/N=C1\C(=O)N(CCc2ccccc2)C(=O)C1C(=O)NCCc1ccccc1` (stereo not given) showed a total growth inhibition concentration (TGI) greater than 100 µM.

Take `CCOC(=O)/C(=C/c1ccccc1)C(=O)c1ccccc1`: the GI50 is 12 µM and the TGI was found to be 27.7 µM.

Consider `CC(C)Oc1c(C2(c3ccccc3O)SCCCS2)c(=O)c1=O`, for which the TGI was greater than 100 µM.

In turn, `Nc1cc(S(=O)(=O)O)cc2cc(S(=O)(=O)O)c(N=Nc3ccc(-c4ccc(N=Nc5c(S(=O)(=O)O)cc6cc(S(=O)(=O)O)cc(N)c6c5O)cc4)cc3)c(O)c12` displayed a total growth inhibition concentration (TGI) greater than 100 µM.

Molecule `CN1CCC(C(=O)NNc2ccccc2)CC1` came in with a TGI greater than 100 µM.

In turn, `CCOc1ccccc1NC(=O)C(=O)C(C(=O)c1ccc2ccccc2c1)C1OC(=O)c2ccccc21` (stereo not given) had a TGI of 56.7 µM.

For `O=C1N[C@H]2C(=O)c3c(Cl)sc(Cl)c3[C@H]2O1`, the TGI was 25 µM.

Regarding `C=CC[N+]1(CCO)CCN=C1CCCCCCCCCCCCC` (stereo not given), the GI50 was 1.7 µM and the TGI was found to be 3.87 µM.

`CCOC(=O)C1(Br)C(c2ccccc2)NC(=O)N(C2OC(COC(=O)c3ccccc3)C(OC(=O)c3ccccc3)C2OC(=O)c2ccccc2)C1(C)Br` (stereo not given) showed a TGI greater than 100 µM.

As for `CC1(C)C(=O)N(O)C(C)(C)N1N=O`, the total growth inhibition concentration (TGI) is greater than 10 µM.

With `CC(C)(C)CC(C)(C)N(CSc1ccc(Cl)cc1)CSc1ccc(Cl)cc1`, the GI50 is 2.52 µM and the TGI was 13.4 µM.

In turn, `Nc1ccc2ncc(Nc3ccc(F)cc3)nc2c1` came in with a total growth inhibition concentration (TGI) greater than 100 µM.

Take `Cc1ccc(-c2cn3c(nc4ccccc43)c(-c3ccccc3)n2)cc1`: the TGI is greater than 100 µM.

In turn, `CC(C)(Cl)C(Br)CCC(CBr)=C(Cl)CCl` (mixture of isomers) showed a concentration for total growth inhibition (TGI) greater than 10 µM.

`C=C(C)C(=O)OC1C(C(C)CCCO)=C(CO)CC2OC(=O)C(=C)C21` (stereo not given) registered a total growth inhibition concentration (TGI) of 69.9 µM.

The molecule `CCOc1ncn(-c2ccc(NC(=S)Nc3cnccn3)cc2)n1` returned a concentration for total growth inhibition (TGI) greater than 10 µM.

On to `COc1ccc2[nH]c3c(C)c4cc[n+](C)cc4c(C)c3c2c1`, for which the GI50 was 0.437 µM and 0.402 µM; the TGI was 12.7 µM and 6.33 µM and 7.85 µM.

Turning to `COc1ccccc1-c1ccc2nc(NC(=O)Nc3cc(C(F)(F)F)cc(C(F)(F)F)c3)sc2c1`, the GI50 is 2.78 µM and the concentration for total growth inhibition (TGI) came to 9.06 µM.

`Nc1ccc(C(=O)NN2C(=O)C(Cl)C2c2cc(Br)cc(Br)c2O)cc1` (stereo not given) returned a concentration for total growth inhibition (TGI) of 92.4 µM.

The molecule `Cc1ccc(/C=C/C(=O)C(C)C)cc1` yielded a total growth inhibition concentration (TGI) greater than 100 µM.

As for `C[n+]1c2ccccc2c(C(=O)NC(CCCN=C(N)N)C(=O)O)c2ccccc21` (stereo not given), the total growth inhibition concentration (TGI) was greater than 100 µM.

In the case of `CSC1=C(C#N)C(=O)N(c2ccc(Cl)cc2)C(=O)C1C#N` (stereo not given), the total growth inhibition concentration (TGI) is greater than 100 µM.

With `C[N+]1(C)CCOC(O)(c2ccccc2)C1` (stereo not given), the TGI was greater than 100 µM.

For `Cc1cc2c(=O)cc(-c3ccc(C(F)(F)F)cc3)oc2c(C(=O)O)c1C`, the TGI is greater than 100 µM.

Consider `NC(=O)c1ccc2nc(-c3ccc(C4(N)CCC4)cc3)c(-c3ccccc3)n2n1`, for which the GI50 is 10.1 µM and the TGI came out at 31.2 µM.
